{"source": "ChEMBL document CHEMBL4888484", "about": "“Replenishing the malaria drug discovery pipeline: Screening and hit evaluation of the MMV Hit Generation Library 1 (HGL1) against asexual blood stage Plasmodium falciparum ,using a nano luciferase reporter read-out” (2022)", "note": "The whole screen tested about 150,000 compounds, of which about 540 (0.36%) showed an effect of 50% or more. The list shows a part of the results.", "data": [{"tested_on": "Plasmodium falciparum", "test": "Primary screen in NF54 nanoGlo assay, in single point, at 2uM, 72h; a lower Z score goes with more inhibition", "type": "functional, Erythrocyte", "settings": "timepoint 72 hour", "units": {"% Inhibition": "%"}, "values": [{"smiles": "O=C1CCC2(CCN(C(=O)c3ccc4ccccc4n3)CC2)N1", "% Inhibition": -10, "Z score": 1.42}, {"smiles": "CC(C)(CC(=O)O)CC(=O)Nc1cccc(C(F)(F)F)c1", "% Inhibition": -7, "Z score": 1.06}, {"smiles": "C#CCNC(=O)N(C)Cc1cnc(C)s1", "% Inhibition": -1, "Z score": 0.07}, {"smiles": "COc1ccc(CN2CC3(CCCCC3)C[C@@H]2COc2ccncc2)cc1O", "% Inhibition": -10, "Z score": 1.72}, {"smiles": "CN1CCN(CC(=O)Nc2sc3c(c2C#N)CCC3)CC1", "% Inhibition": 2, "Z score": -0.3}, {"smiles": "CCOC(=O)N1CCC(C)(CNc2cnn(CC(=O)NC)c2)CC1", "% Inhibition": -7, "Z score": 0.7}, {"smiles": "C[C@H](Nc1cccc(CO)c1)C(=O)NC(=O)NC1CC1", "% Inhibition": -4, "Z score": 0.44}, {"smiles": "O=C(CCc1ccccc1)Nc1nnc(-c2ccccc2)o1", "% Inhibition": -10, "Z score": 1.79}, {"smiles": "CN(C(=O)c1ccc(Cl)c(S(=O)(=O)NC(C)(C)C)c1)c1cnccn1", "% Inhibition": 10, "Z score": -1.3}, {"smiles": "O=C1c2ccccc2C(=O)N1CCN1CCN(CC2CC2)CC1", "% Inhibition": -8, "Z score": 1.03}, {"smiles": "C[C@@H](CC(=O)Nc1ncc(Br)cc1CO)n1cccn1", "% Inhibition": -12, "Z score": 2.35}, {"smiles": "CCC1CN(S(=O)(=O)C(C)C)CCC1NC(C)c1nc(C)no1", "note": "(stereo not drawn)", "% Inhibition": 6, "Z score": -0.56}, {"smiles": "CN1CCN(C(=O)c2cc(N(C)C)ccn2)c2ccccc2C1", "% Inhibition": 6, "Z score": -0.56}, {"smiles": "CC(C)[C@H](NC(=O)c1cc(Cn2cccn2)on1)c1nncn1C", "% Inhibition": -7, "Z score": 1.12}, {"smiles": "Cn1nccc1[C@H](CO)NCc1ccsc1C(F)(F)F", "% Inhibition": -1, "Z score": 0.13}, {"smiles": "CCc1ccccc1OCCN1CCN(C)C1=O", "% Inhibition": -8, "Z score": 1.03}, {"smiles": "CCc1nc(CN(C)CCn2ccnc2C)n[nH]1", "% Inhibition": -4, "Z score": 0.72}, {"smiles": "COc1cccc(-c2nc(CN3CCC[C@H](COc4cccc(C)c4)C3)c(C)o2)c1OC", "% Inhibition": -2, "Z score": 0.27}, {"smiles": "CCCn1ccnc1[C@H]1CC(=O)Nc2n[nH]c(C3CCC3)c21", "% Inhibition": -6, "Z score": 1.05}, {"smiles": "CCN(CC)c1onc(-c2ccccc2)c1CN(CC(C)C)C[C@H](O)COc1ccccc1", "% Inhibition": -2, "Z score": 0.31}, {"smiles": "C=CCNC(=O)c1ccc(N[C@@H](C)Cn2nc(C)cc2C)nc1", "% Inhibition": -8, "Z score": 1.04}, {"smiles": "Cc1ccc2c(CCNC(=O)NC[C@@H](C)O)cn(C)c2c1", "% Inhibition": 6, "Z score": -0.6}, {"smiles": "COc1cccc(S(=O)(=O)N2CCCN([C@H]3CCN(Cc4ccccc4)C3=O)CC2)c1", "% Inhibition": -3, "Z score": 0.39}, {"smiles": "CCn1cc(Cl)c(C(=O)N2CC[C@H](c3ncon3)C2)n1", "% Inhibition": -7, "Z score": 1.15}, {"smiles": "CC1CCCC(C)N1C(=O)c1nn2c(c1Cl)N[C@@H](c1cccs1)C[C@H]2C(F)(F)F", "note": "(stereo partly drawn)", "% Inhibition": -6, "Z score": 0.87}, {"smiles": "O=S(=O)(Nc1cnn(C[C@H]2COc3ccccc3O2)c1)C1CC1", "% Inhibition": 17, "Z score": -2.18}, {"smiles": "CCOC[C@H](O)COc1ccc(Br)cc1C#N", "% Inhibition": -14, "Z score": 1.58}, {"smiles": "NC(=O)c1ccc(CN2CCCS2(=O)=O)cc1", "% Inhibition": -5, "Z score": 0.89}, {"smiles": "Cc1noc(-c2cc(C)c(C)c(S(N)(=O)=O)c2)n1", "% Inhibition": 0, "Z score": 0.06}, {"smiles": "O=C(c1ccncc1)N1CCN(Cc2cccnc2)[C@@H]2CS(=O)(=O)C[C@@H]21", "% Inhibition": -18, "Z score": 2.15}, {"smiles": "O=C(CN1CCCN(c2ccc3nccnc3n2)CC1)N1CCCC1", "% Inhibition": -7, "Z score": 0.62}, {"smiles": "CC(C)c1nnc(C(=O)NCc2cccnc2NCCN(C)C)s1", "% Inhibition": -6, "Z score": 0.82}, {"smiles": "CNC(=O)NC1CN(C(=O)Nc2cc(F)ccc2C)C1", "% Inhibition": -8, "Z score": 0.87}, {"smiles": "Cc1c[nH]c(-c2nccn2Cc2cnc3ccccc3c2)n1", "% Inhibition": -19, "Z score": 1.88}, {"smiles": "O=S(=O)(c1ccc2c(c1)CCCC2)N1CCN(c2nccs2)CC1", "% Inhibition": 27, "Z score": -3.02}, {"smiles": "Cc1cc2sc(-c3ccccc3)c([O-])[n+]2cn1", "% Inhibition": 35, "Z score": -5.01}, {"smiles": "Cc1cccc(Cc2c(C)nc(C)nc2N2CCN(C(=O)c3ccccc3Cl)CC2)c1", "% Inhibition": 1, "Z score": -0.15}, {"smiles": "Cc1ccnc(N[C@H](c2cccs2)c2cc(C)sc2NC(=O)c2ccccc2)c1", "% Inhibition": 35, "Z score": -1.05}, {"smiles": "CCNc1ncc(C(=O)N(CC)CCOc2ccc(F)cc2)cn1", "% Inhibition": 8, "Z score": -0.96}, {"smiles": "C[C@H](Oc1cccc(C#N)c1)C(=O)NS(=O)(=O)CCC(C)(C)C", "% Inhibition": 30, "Z score": -3.84}, {"smiles": "CCOC1CC(NC(=O)CO)C1Oc1ccccc1", "note": "(stereo not drawn)", "% Inhibition": -6, "Z score": 0.75}, {"smiles": "Cc1ccccc1C(=O)N1C[C@@H]2CN(C(=O)C3CCCC3)C[C@]2(C(=O)O)C1", "% Inhibition": -3, "Z score": 0.47}, {"smiles": "CCC(C)(CNC(=O)C(F)(F)c1ccc(OC)cc1)C(C)O", "note": "(stereo not drawn)", "% Inhibition": -14, "Z score": 2}, {"smiles": "O=C(NCc1ccc(Br)cc1F)NC[C@H]1CCOC1", "% Inhibition": -4, "Z score": 0.53}]}]}
